Substitutions are numbered along the chain they refer to; changes in the protein carry UniProt numbers. The list shows a part of the results.
T1: RBFOX1 RRM (Homo sapiens, UniProt Q9NWB1 109-208)
T1 sequence: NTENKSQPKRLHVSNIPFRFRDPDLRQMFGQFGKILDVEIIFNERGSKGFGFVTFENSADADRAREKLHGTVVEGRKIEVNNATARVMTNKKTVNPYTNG

B1: CUCGGUA (DNA:RNA)
RNA: GGGAGACCGGAAUUCAGAUUGUCCCUCGGUAUUAAAUCCCGUCGUAGCCACCA
DNA 1: CAATCTGAATTCCGGTCTCCC
DNA 2: TGGTGGCTACGACGGGATT
B2: UCGAGGA (DNA:RNA)
RNA: B1 RNA with C25U, U26C, C27G, G28A, U30G
DNA 1: CAATCTGAATTCCGGTCTCCC
DNA 2: TGGTGGCTACGACGGGATT
B3: UUUGACC (DNA:RNA)
RNA: B1 RNA with C25U, C27U, G29A, U30C, A31C
DNA 1: CAATCTGAATTCCGGTCTCCC
DNA 2: TGGTGGCTACGACGGGATT
B4: CAACCCA (DNA:RNA)
RNA: B1 RNA with U26A, C27A, G28C, G29C, U30C
DNA 1: CAATCTGAATTCCGGTCTCCC
DNA 2: TGGTGGCTACGACGGGATT
B5: GGUGCGU (DNA:RNA)
RNA: B1 RNA with C25G, U26G, C27U, G29C, U30G, A31U
DNA 1: CAATCTGAATTCCGGTCTCCC
DNA 2: TGGTGGCTACGACGGGATT
B6: UUGCGAU (DNA:RNA)
RNA: B1 RNA with C25U, C27G, G28C, U30A, A31U
DNA 1: CAATCTGAATTCCGGTCTCCC
DNA 2: TGGTGGCTACGACGGGATT
B7: GCUUUAC (DNA:RNA)
RNA: GGGAGACCGGAAUUCAGAUUGUCCGCUUUACUUAAAUCCCGUCGUAGCCACCA
DNA 1: CAATCTGAATTCCGGTCTCCC
DNA 2: TGGTGGCTACGACGGGATT
B8: AAGCCCG (DNA:RNA)
RNA: GGGAGACCGGAAUUCAGAUUGUCCAAGCCCGUUAAAUCCCGUCGUAGCCACCA
DNA 1: CAATCTGAATTCCGGTCTCCC
DNA 2: TGGTGGCTACGACGGGATT
B9: CCAGCAU (DNA:RNA)
RNA: B1 RNA with U26C, C27A, G29C, U30A, A31U
DNA 1: CAATCTGAATTCCGGTCTCCC
DNA 2: TGGTGGCTACGACGGGATT
B10: AAGAUAC (DNA:RNA)
RNA: B8 RNA with C28A, C29U, C30A, G31C
DNA 1: CAATCTGAATTCCGGTCTCCC
DNA 2: TGGTGGCTACGACGGGATT
B11: GAGACAU (DNA:RNA)
RNA: B8 RNA with A25G, C28A, C30A, G31U
DNA 1: CAATCTGAATTCCGGTCTCCC
DNA 2: TGGTGGCTACGACGGGATT
B12: UAGCGAC (DNA:RNA)
RNA: B8 RNA with A25U, C29G, C30A, G31C
DNA 1: CAATCTGAATTCCGGTCTCCC
DNA 2: TGGTGGCTACGACGGGATT
B13: UCAACUA (DNA:RNA)
RNA: B1 RNA with C25U, U26C, C27A, G28A, G29C
DNA 1: CAATCTGAATTCCGGTCTCCC
DNA 2: TGGTGGCTACGACGGGATT
B14: UGCUCGC (DNA:RNA)
RNA: B7 RNA with G25U, C26G, U27C, U29C, A30G
DNA 1: CAATCTGAATTCCGGTCTCCC
DNA 2: TGGTGGCTACGACGGGATT
B15: CAGACGG (DNA:RNA)
RNA: B8 RNA with A25C, C28A, C30G
DNA 1: CAATCTGAATTCCGGTCTCCC
DNA 2: TGGTGGCTACGACGGGATT
B16: UCAAAAG (DNA:RNA)
RNA: B7 RNA with G25U, U27A, U28A, U29A, C31G
DNA 1: CAATCTGAATTCCGGTCTCCC
DNA 2: TGGTGGCTACGACGGGATT
B17: GCGAUUA (DNA:RNA)
RNA: B7 RNA with U27G, U28A, A30U, C31A
DNA 1: CAATCTGAATTCCGGTCTCCC
DNA 2: TGGTGGCTACGACGGGATT
B18: UACCCAU (DNA:RNA)
RNA: B8 RNA with A25U, G27C, C30A, G31U
DNA 1: CAATCTGAATTCCGGTCTCCC
DNA 2: TGGTGGCTACGACGGGATT
B19: UGAUUUA (DNA:RNA)
RNA: B1 RNA with C25U, U26G, C27A, G28U, G29U
DNA 1: CAATCTGAATTCCGGTCTCCC
DNA 2: TGGTGGCTACGACGGGATT
B20: UUUUUCU (DNA:RNA)
RNA: B7 RNA with G25U, C26U, A30C, C31U
DNA 1: CAATCTGAATTCCGGTCTCCC
DNA 2: TGGTGGCTACGACGGGATT
B21: UCGAUAC (DNA:RNA)
RNA: B7 RNA with G25U, U27G, U28A
DNA 1: CAATCTGAATTCCGGTCTCCC
DNA 2: TGGTGGCTACGACGGGATT
B22: CGAAAGU (DNA:RNA)
RNA: B1 RNA with U26G, C27A, G28A, G29A, U30G, A31U
DNA 1: CAATCTGAATTCCGGTCTCCC
DNA 2: TGGTGGCTACGACGGGATT
B23: GUGUACA (DNA:RNA)
RNA: B8 RNA with A25G, A26U, C28U, C29A, G31A
DNA 1: CAATCTGAATTCCGGTCTCCC
DNA 2: TGGTGGCTACGACGGGATT
B24: AUGUUUC (DNA:RNA)
RNA: B7 RNA with G25A, C26U, U27G, A30U
DNA 1: CAATCTGAATTCCGGTCTCCC
DNA 2: TGGTGGCTACGACGGGATT
B25: GGGUGGG (DNA:RNA)
RNA: B8 RNA with A25G, A26G, C28U, C29G, C30G
DNA 1: CAATCTGAATTCCGGTCTCCC
DNA 2: TGGTGGCTACGACGGGATT
B26: CGUACAG (DNA:RNA)
RNA: B8 RNA with A25C, A26G, G27U, C28A, C30A
DNA 1: CAATCTGAATTCCGGTCTCCC
DNA 2: TGGTGGCTACGACGGGATT
B27: GAGAUUG (DNA:RNA)
RNA: B8 RNA with A25G, C28A, C29U, C30U
DNA 1: CAATCTGAATTCCGGTCTCCC
DNA 2: TGGTGGCTACGACGGGATT
B28: UACACGA (DNA:RNA)
RNA: B8 RNA with A25U, G27C, C28A, C30G, G31A
DNA 1: CAATCTGAATTCCGGTCTCCC
DNA 2: TGGTGGCTACGACGGGATT
B29: CACAAUA (DNA:RNA)
RNA: B1 RNA with U26A, G28A, G29A
DNA 1: CAATCTGAATTCCGGTCTCCC
DNA 2: TGGTGGCTACGACGGGATT
B30: CCCGUUG (DNA:RNA)
RNA: B1 RNA with U26C, G29U, A31G
DNA 1: CAATCTGAATTCCGGTCTCCC
DNA 2: TGGTGGCTACGACGGGATT
B31: AAAAAAU (DNA:RNA)
RNA: B8 RNA with G27A, C28A, C29A, C30A, G31U
DNA 1: CAATCTGAATTCCGGTCTCCC
DNA 2: TGGTGGCTACGACGGGATT

The binders below were run against T1, RBFOX1 RRM (assay: EMSA; HiTS-Eq, 1 nM pool, 10 min; buffer printed only for the single-RNA assays: 10 mM Tris pH 7.5, 150 mM NaCl, 3.4 mM EDTA, 0.001% NP-40, 30 C). Settings: tags: His6 N-terminal (pET28a); label: 5' 32P.
In short: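 Relative association constants, normalised to the cognate motif, were derived by comparing read counts of each RNA species with those of the control reaction. The RNA sequenced was the free fraction, separated by 8% native PAGE after a 10 min equilibration in 50 µL of 1 nM 5′-radiolabelled RNA (7 randomized nucleotides) with increasing concentrations of purified wild-type or mutant RbFox RRM.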
With B1 the binding signal was 0.0114 KA relative to UGCAUGU. In the case of B2, the binding signal is reported as 0.00503 KA relative to UGCAUGU. With B3 the binding signal was 0.0109 KA relative to UGCAUGU. For B4, the binding signal was 0.00256 KA relative to UGCAUGU. With B5 the binding signal was 0.0222 KA relative to UGCAUGU. With B6 the binding signal was 0.0151 KA relative to UGCAUGU. In the case of B7, the binding signal is reported as 0.0086 KA relative to UGCAUGU. B8 was tested, and the binding signal was 0.00982 KA relative to UGCAUGU. With B9 the binding signal was 0.00309 KA relative to UGCAUGU. In the case of B10, the binding signal is reported as 0.00405 KA relative to UGCAUGU. B11 was tested, and the binding signal was 0.00415 KA relative to UGCAUGU. For B12, the binding signal was 0.00297 KA relative to UGCAUGU. In the case of B13, the binding signal is reported as 0.00111 KA relative to UGCAUGU. B14 was tested, and the binding signal was 0.027 KA relative to UGCAUGU. With B15 the binding signal was 0.00484 KA relative to UGCAUGU. In the case of B16, the binding signal is reported as 0.00687 KA relative to UGCAUGU. With B17 the binding signal was 0.00768 KA relative to UGCAUGU. B18 was tested, and the binding signal was 0.00118 KA relative to UGCAUGU. For B19, the binding signal was 0.0154 KA relative to UGCAUGU. For B20, the binding signal was 0.0117 KA relative to UGCAUGU. B21 was tested, and the binding signal was 0.0082 KA relative to UGCAUGU. For B22, the binding signal was 0.0115 KA relative to UGCAUGU. With B23 the binding signal was 0.00903 KA relative to UGCAUGU. B24 was tested, and the binding signal was 0.0159 KA relative to UGCAUGU. With B25 the binding signal was 0.0201 KA relative to UGCAUGU. B26 was tested, and the binding signal was 0.00596 KA relative to UGCAUGU. In the case of B27, the binding signal is reported as 0.019 KA relative to UGCAUGU. With B28 the binding signal was 0.00764 KA relative to UGCAUGU. For B29, the binding signal was 0.00108 KA relative to UGCAUGU. For B30, the binding signal was 0.0197 KA relative to UGCAUGU. B31 was tested, and the binding signal was 0.000327 KA relative to UGCAUGU.
